In the supplement of paper PMC4967469:
pIC50: −log10 of the molar value. IC50 is the fitted dose that halves viability relative to control wells, and lower means more sensitive; a fit beyond the top or the lowest dose is shown as a bound at that dose. AUC, from the same fit, is the share of area under the viability curve across the 256-fold dose range; it is 1 without any effect and falls as sensitivity rises. For some assays here: Where the top dose is marked as inferred, it comes from the curve model; the source does not state it.

Key:
Test in all cases: Viability of human cancer cell lines after 72 h of drug (GDSC screen)
PIK-93 = compound: CC(=O)Nc1nc(C)c(-c2ccc(Cl)c(S(=O)(=O)NCCO)c2)s1 [PIK-93]; conditions: top dose 20 µM
Experimental: (§1)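 Human cancer cell lines in 384-well plates, medium with 10% serum, drug for 72 h over a 256-fold dose range (nine 2-fold or five 4-fold steps up to the top dose). Adherent lines were fixed and stained with the nucleic acid dye Syto60, suspension lines read with resazurin; signal relative to control wells, capped at 0 and 100%. One two-parameter sigmoid per drug and line, fitted in a mixed model over all curves with the slope shared within a line.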

ABT-263 = compound: CC1(C)CCC(c2ccc(Cl)cc2)=C(CN2CCN(c3ccc(C(=O)NS(=O)(=O)c4ccc(N[C@H](CCN5CCOCC5)CSc5ccccc5)c(S(=O)(=O)C(F)(F)F)c4)cc3)CC2)C1 [ABT-263]; conditions: top dose 2 µM; top dose inferred
Experimental: as §1

GW 441756 = compound: Cn1cc(/C=C2\C(=O)Nc3cccnc32)c2ccccc21 [GW 441756]; conditions: top dose 2 µM; top dose inferred
Experimental: as §1

piperlongumine = compound: COc1cc(/C=C/C(=O)N2CCC=CC2=O)cc(OC)c1OC [piperlongumine]; conditions: top dose 10 µM
Experimental: as §1

Row | Cell Line | AUC (PIK-93) | pIC50 (PIK-93) | AUC (ABT-263) | pIC50 (ABT-263) | AUC (GW 441756) | pIC50 (GW 441756) | AUC (piperlongumine) | pIC50 (piperlongumine)
1 | 201T (lung adenocarcinoma, adherent) | 0.853 | < 4.70 | 0.979 | < 5.70 | 0.872 | < 5.70 |  | 
2 | BALL-1 (B-cell leukaemia, suspension) |  |  | 0.389 | 7.17 | 0.997 | < 5.70 | 0.862 | 5.30
3 | BT-549 (breast, adherent) |  |  | 0.978 | < 5.70 | 0.864 | < 5.70 | 0.65 | 5.71
4 | CL-34 (large intestine, adherent) |  |  | 0.959 | < 5.70 | 0.98 | < 5.70 | 0.821 | 5.18
5 | CL-40 (large intestine, adherent) |  |  | 0.924 | < 5.70 | 0.975 | < 5.70 | 0.874 | < 5.00
6 | CML-T1 (chronic myeloid leukaemia, suspension) |  |  | 0.539 | 6.81 | 0.991 | < 5.70 | 0.814 | 5.36
7 | CRO-AP2 (B-cell lymphoma, suspension) |  |  | 0.983 | < 5.70 | 0.986 | < 5.70 | 0.574 | 6.02
8 | DIFI (large intestine, adherent) |  |  | 0.857 | 5.76 | 0.959 | < 5.70 | 0.859 | 5.06
9 | EW-22 (Ewing sarcoma, adherent) |  |  | 0.698 | 6.36 | 0.98 | < 5.70 | 0.851 | 5.14
10 | H290 (mesothelioma, adherent) |  |  | 0.971 | < 5.70 | 0.897 | < 5.70 | 0.785 | 5.41
11 | HCC-366 (non-small cell lung carcinoma, adherent) |  |  | 0.727 | 6.25 | 0.96 | < 5.70 | 0.885 | < 5.00
12 | Hep 3B2_1-7 (liver, adherent) |  |  | 0.688 | 6.38 | 0.98 | < 5.70 | 0.703 | 5.63
13 | HuH-7 (liver, adherent) |  |  | 0.865 | 5.76 | 0.974 | < 5.70 | 0.738 | 5.53
14 | IGROV-1 (ovary, adherent) |  |  | 0.976 | < 5.70 | 0.93 | < 5.70 | 0.82 | 5.01
15 | JEKO-1 (B-cell lymphoma, suspension) |  |  | 0.792 | 6.06 | 0.987 | < 5.70 | 0.747 | 5.51
16 | JHOS-4 (ovary, adherent) |  |  | 0.803 | 5.80 | 0.77 | 5.95 |  | 
17 | JHU-029 (head and neck, adherent) |  |  | 0.87 | < 5.70 | 0.902 | < 5.70 | 0.655 | 5.73
18 | Jurkat (T-cell leukaemia, suspension) |  |  | 0.94 | < 5.70 | 0.993 | < 5.70 | 0.809 | 5.39
19 | KARPAS-1106P (B-cell lymphoma, suspension) |  |  | 0.974 | < 5.70 | 0.989 | < 5.70 | 0.837 | 5.29

Row | Cell Line | AUC (PIK-93) | pIC50 (PIK-93) | AUC (ABT-263) | pIC50 (ABT-263) | AUC (GW 441756) | pIC50 (GW 441756) | AUC (piperlongumine) | pIC50 (piperlongumine)
20 | KATOIII (stomach, semi-adherent) |  |  | 0.986 | < 5.70 | 0.947 | < 5.70 | 0.866 | 5.11
21 | KNS-62 (lung squamous cell carcinoma, adherent) |  |  | 0.933 | < 5.70 | 0.936 | < 5.70 | 0.712 | 5.48
22 | KP-1N (pancreas, adherent) |  |  | 0.979 | < 5.70 | 0.986 | < 5.70 | 0.723 | 5.56
23 | MEL-HO (melanoma, adherent) |  |  | 0.922 | < 5.70 | 0.984 | < 5.70 | 0.574 | 6.00
24 | MHH-CALL-2 (B-cell leukaemia, suspension) |  |  | 0.982 | < 5.70 | 0.997 | < 5.70 | 0.865 | 5.28
25 | MKN7 (stomach, adherent) |  |  | 0.935 | < 5.70 | 0.981 | < 5.70 | 0.826 | 5.04
26 | MM1S (myeloma, suspension) |  |  | 0.703 | 6.34 | 0.982 | < 5.70 |  | 
27 | MOLM-16 (acute myeloid leukaemia, suspension) |  |  | 0.586 | 6.68 | 0.956 | < 5.70 | 0.749 | 5.54
28 | MOLT-16 (T-cell lymphoblastic leukaemia, suspension) |  |  | 0.775 | 6.20 | 0.992 | < 5.70 | 0.624 | 5.90
29 | NCC010 (kidney, adherent) |  |  | 0.892 | < 5.70 | 0.902 | < 5.70 | 0.82 | 5.20
30 | NCI-H508 (large intestine, semi-adherent) |  |  | 0.726 | 6.06 | 0.976 | < 5.70 | 0.763 | 5.20
31 | NCI-H835 (lung carcinoid, suspension) |  |  | 0.67 | 6.44 | 0.988 | < 5.70 | 0.819 | 5.27
32 | NCI-H929 (myeloma, suspension) |  |  | 0.952 | < 5.70 | 0.982 | < 5.70 | 0.803 | 5.39
33 | NCI-H1105 (small cell lung carcinoma, suspension) |  |  | 0.308 | 7.39 | 0.993 | < 5.70 | 0.834 | 5.31
34 | NCI-H1341 (small cell lung carcinoma, suspension) |  |  | 0.58 | 6.70 | 0.79 | 6.13 | 0.802 | 5.39
35 | NCI-N87 (stomach, adherent) |  |  | 0.934 | < 5.70 | 0.967 | < 5.70 | 0.932 | < 5.00
36 | OCI-LY7 (B-cell lymphoma, suspension) |  |  | 0.612 | 6.63 | 0.911 | 5.86 | 0.872 | 5.28
37 | RCH-ACV (B-cell leukaemia, suspension) |  |  | 0.677 | 6.45 | 0.985 | < 5.70 | 0.836 | 5.30
38 | RERF-GC-1B (stomach, adherent) | 0.877 | < 4.70 | 0.893 | < 5.70 |  |  | 0.81 | 5.22

Row | Cell Line | AUC (PIK-93) | pIC50 (PIK-93) | AUC (ABT-263) | pIC50 (ABT-263) | AUC (GW 441756) | pIC50 (GW 441756) | AUC (piperlongumine) | pIC50 (piperlongumine)
39 | RH-18 (rhabdomyosarcoma, adherent) |  |  | 0.416 | 7.15 | 0.981 | < 5.70 | 0.814 | 5.19
40 | SCC90 (head and neck, adherent) |  |  | 0.916 | < 5.70 | 0.837 | < 5.70 | 0.816 | 5.06
41 | SK-CO-1 (large intestine, adherent) | 0.76 | 5.18 | 0.678 | 6.42 |  |  | 0.774 | 5.43
42 | SK-GT-2 (stomach, adherent) |  |  | 0.679 | 6.39 | 0.973 | < 5.70 | 0.777 | 5.37
43 | SK-HEP-1 (liver, adherent) | 0.894 | < 4.70 | 0.989 | < 5.70 |  |  | 0.716 | 5.61
44 | SK-LU-1 (lung adenocarcinoma, adherent) | 0.912 | < 4.70 | 0.893 | < 5.70 |  |  | 0.8 | 5.19
45 | SK-MEL-28 (melanoma, adherent) | 0.859 | 4.80 | 0.928 | < 5.70 |  |  | 0.779 | 5.40
46 | SK-MEL-31 (melanoma, adherent) |  |  | 0.898 | < 5.70 | 0.914 | < 5.70 | 0.804 | 5.17
47 | STS-0421 (soft tissue, adherent) |  |  | 0.983 | < 5.70 | 0.932 | < 5.70 | 0.734 | 5.48
48 | SU-DHL-10 (B-cell lymphoma, suspension) | 0.261 | 6.48 | 0.998 | < 5.70 |  |  | 0.939 | 5.08
49 | SUP-B8 (B-cell leukaemia, suspension) |  |  | 0.916 | < 5.70 | 0.987 | < 5.70 | 0.837 | 5.18
50 | SW900 (lung squamous cell carcinoma, adherent) | 0.933 | < 4.70 | 0.945 | < 5.70 |  |  | 0.786 | 5.29
51 | TC-YIK (cervix, suspension) |  |  | 0.49 | 6.93 | 0.991 | < 5.70 | 0.774 | 5.47
52 | TCCSUP (bladder, adherent) | 0.949 | < 4.70 | 0.969 | < 5.70 |  |  | 0.745 | 5.45
53 | U031 (kidney, adherent) | 0.892 | < 4.70 | 0.926 | < 5.70 |  |  | 0.707 | 5.61
54 | U-266 (myeloma, semi-adherent) |  |  | 0.976 | < 5.70 | 0.983 | < 5.70 | 0.828 | 5.03
55 | VM-CUB-1 (bladder, adherent) | 0.887 | < 4.70 | 0.938 | < 5.70 |  |  | 0.729 | 5.57
56 | VMRC-LCD (lung adenocarcinoma, adherent) |  |  | 0.957 | < 5.70 | 0.978 | < 5.70 | 0.814 | 5.36
57 | ZR-75-30 (breast, adherent) |  |  | 0.967 | < 5.70 | 0.862 | < 5.70 | 0.912 | < 5.00
